According to the RNAGym collection of RNA variant scans (doi:10.1073/pnas.2313332121):
Variants at the floor of the assay are shown more often than the library holds them.

B1: TPR 5TU (parent)
chain: GGAUCUUCUCGAUCUAACAAAAAAGACAAAUCUGCCACAAAGCUUGAGAGCAUCUUCGGAUGCAGAGGCGGCAGCCUUCGGUGGCGCGAUAGCGCCAACGUUCUCAACUAUGACACGCAAAACGCGUGCUCCGUUGAAUGGAGUUUAUCAUG

Variants of: B1
Test: polymerase ribozyme fitness, log enrichment relative to wild type (log ratio); higher = more active; in vitro selection for triplet polymerase activity
Outline: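 Fitness compares each genotype's enrichment to that of the wild type on a logarithmic scale, averaging replicates with inverse-variance weights. The logarithm is base 2. Enrichment came from Illumina sequencing of input and output libraries after one triplicate round of in vitro selection, which included frozen incubation at −7 °C, of PCR-built, transcribed mutant libraries of each subunit of a heterodimeric triplet polymerase ribozyme. Only genotypes with ≥10 input reads and ≥1 read per output were kept.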

Variant | polymerase ribozyme fitness (log ratio)
G83A C103A C108U | ≤ -4.2
G83A C105A | -3.15
G83A C118G U127G | ≤ -4.2
G83A G94A G117U G133A U135C | ≤ -4.2
G83A U101G A106U U145C | -2.55
G83A U151A | -3.69
G83C A97U U139A G141C U151G | ≤ -4.2
G83C A107C G140U | ≤ -4.2
G83C A110U U127C | ≤ -4.2
G83C C85G | ≤ -4.2
G83C C99G C105U | ≤ -4.2
G83C C105G G126A | -2.8
G83C C118G | -0.968
G83C C125A G136U | -2.54
G83C C125A U144A | -2.36
G83C C125U U146G | -3.89
G83C G86C C105G A115U A121G G143C G152C | ≤ -4.2
G83C G92A | ≤ -4.2
G83C U90C C95G | ≤ -4.2
G83C U109A A115C G140C | ≤ -4.2
G83C U144C | -1.58

Variant | polymerase ribozyme fitness (log ratio)
G83U A89C G94C A119U U144G C149U G152A | ≤ -4.2
G83U A89C U90G C105U | ≤ -4.2
G83U A91G A121G G124C | ≤ -4.2
G83U A107U G141U | ≤ -4.2
G83U A110G G117U G152U | ≤ -4.2
G83U C87G C99U | ≤ -4.2
G83U C87U A150C | ≤ -4.2
G83U C93U C96G U135A | -2.89
G83U C95G G126U | -1.85
G83U C96A | -0.528
G83U C108A U144G | ≤ -4.2
G83U C114A U127G G141U G152U | ≤ -4.2
G83U C118A C125U U148C | ≤ -4.2
G83U C149U | -1.76
G83U G88U A150U | -3.49
G83U G92A C125G A138G U151A | ≤ -4.2
G83U G94C C116U | -2.08
G83U G126A | -0.669
G83U U90C A113U U148C | ≤ -4.2
G83U U127A | -3.18
G83U U151A | ≤ -4.2

Variant | polymerase ribozyme fitness (log ratio)
G84A A89G G100C A115G C125U | ≤ -4.2
G84A A97U | -1.12
G84A A98C C105G U148C | -3.35
G84A A107C U134C | ≤ -4.2
G84A A115U | -2.62
G84A A120C C125U G136A | 0.204
G84A A122G G140A G141A | ≤ -4.2
G84A A137C U144C | ≤ -4.2
G84A A147C | -0.0528
G84A C85G A107G G143A | ≤ -4.2
G84A C85U C99U U102A C114G | ≤ -4.2
G84A C85U G143A | -1.63
G84A C95A | -0.531
G84A C95G | -0.784
G84A C96G | -0.627
G84A C99U G100U U144A | -4.12
G84A C103G C105U | ≤ -4.2
G84A C123U | -0.156
G84A G88A | ≤ -4.2
G84A G88U C108U C123U | ≤ -4.2
G84A G94A A98C G124A | -0.811

Variant | polymerase ribozyme fitness (log ratio)
G84A G94C U151C | ≤ -4.2
G84A G100C U134A G141C | ≤ -4.2
G84A G133C G143U | -3.92
G84A G136A U148C | -1.66
G84A G136C | -3.25
G84A G143U | -2.51
G84A U109G | -1.95
G84A U135A | -1.69
G84A U144A | -1.65
G84C A91U | ≤ -4.2
G84C C85A A98G C103U G140U | ≤ -4.2
G84C C85A G92U C96A A97C C105U | -2.61
G84C C85G | -4.03
G84C C93U C108U | ≤ -4.2
G84C C118A C125U G136U A142U | ≤ -4.2
G84C C123G U146G | -2.7
G84C C125G | -1.94
G84C U148C | ≤ -4.2
G84U A89G | -3.82
G84U A98U C132U U139C | ≤ -4.2
